In PubChem BioAssay AID485364 (National Center for Advancing Translational Sciences (NCATS), 2010):
Among all 360,000 compounds or so, about 11,000 (3.1%) were called active. Inconclusive results, whose numbers are uncertain, are shown with a selection of clear calls. Calls follow the shape of the dose curve; as a rule, active = well fitted inhibition curve with a large enough effect; inconclusive = small, poorly fitted or top-dose-only effect; inactive = no such curve, though single readings can be large or run the other way. Potencies of inconclusive entries are left out as doubtful fits.

target: Schistosoma mansoni thioredoxin glutathione reductase (TGR) (UniProt Q962Y6); assay: qHTS Assay for the Inhibitors of Schistosoma Mansoni Peroxiredoxins; details: purified TGR, DTNB reduction, TNB absorbance 405 nm; series mostly up to 114 µM; also: nearly all actives have a fitted effect of over 60% in size
Procedure, shortened: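 TGR 20 nM + NADPH 100 uM (dispensed conc.), cpd preinc 15 min RT; start with NADPH (500 uM addition) then DTNB (15 mM addition). Kinetic TNB absorbance, 405 nm filter. Four-parameter Hill fit across titration.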
Potency is read from the fitted curve at half-maximal effect; tags tell the direction and shape of the fitted curve.

| SMILES | Potency |
| --- | --- |
| O=C(Cc1ccc([N+](=O)[O-])cc1)N/N=C/c1ccc([N+](=O)[O-])o1 | inconclusive [inhibitor, partial curve] |
| Cc1cccc(C)c1NC(=O)CN1C(=O)c2cccc3cccc1c23 | inactive |
| COCCN(C(=O)COC(=O)CCCOc1ccc(OC)cc1)c1c(N)n(Cc2ccccc2)c(=O)[nH]c1=O | inconclusive [inhibitor, partial curve] |
| O=C(Nc1nnc(C23CC4CC(CC(C4)C2)C3)s1)c1ccco1 | inconclusive [inhibitor, single point] |
| COCCCNc1nc2c(c(=O)[nH]c(=O)n2C)n1CCCc1ccccc1 | inconclusive [inhibitor, full curve, poor fit] |
| NC(C(=O)O)C(c1ccccc1)C(F)F (stereo not drawn) | active: 56.2 µM |
| COc1cc(CN2CCNC(=O)C2CC(=O)NC2CCC2)cc(OC)c1 (stereo not drawn) | inconclusive [inhibitor, partial curve] |
| COc1ccc(S(=O)(=O)N2CCN(Cc3cccc(Cl)c3)CC2)cc1 | inactive |
| Cc1ccc(NC(=O)CCNS(=O)(=O)c2ccc3c(c2)CCCC(=O)N3)cc1 | inactive |
| Cc1ccc(CCNC(=O)c2ccc(CS(=O)(=O)Cc3ccccc3F)o2)cc1 | inconclusive [inhibitor, partial curve] |
| CCn1c(SCC(N)=O)nc2sc3c(c2c1=O)CCN(C)C3 | inconclusive [inhibitor, partial curve] |
| COc1ccc(S(=O)(=O)N2CCCCCC2)cc1C(=O)N1CCN(c2ccccc2O)CC1 | inconclusive [inhibitor, partial curve] |
| CC(C)[C@H](NC(=O)c1cccc(S(=O)(=O)N2CCOCC2)c1)C(=O)Nc1nc2ccccc2s1 | inactive |
| COc1ccccc1N1CCN(CC(O)COc2ccc(C)cc2C(C)(C)C)CC1 (stereo not drawn) | inactive |
| Fc1ccc(N/N=C/C=C/c2ccccc2)c(F)c1 | inconclusive [inhibitor, partial curve] |
| COc1ccc(CCNC(=O)CCc2nnc(Cc3ccc4c(c3)OCO4)o2)cc1 | inconclusive [inhibitor, partial curve] |
| COc1ccc(-n2nc3c(c2NC(=O)COc2ccccc2)CS(=O)C3)cc1 (stereo not drawn) | inactive |
| O=C(/C=C/c1cccs1)Nc1nncs1 | inactive |
| Cc1cccc(Nc2c3c(nc4nncn24)CCC3)c1C | active: 39.8 µM |
| O=C(Cn1cnc2c(nnn2Cc2ccccc2F)c1=O)NCc1ccco1 | inconclusive [inhibitor, partial curve] |
| Cc1ccc2cc(C(c3nnnn3C3CCCC3)N(Cc3cccnc3)Cc3ccco3)c(=O)[nH]c2c1 (stereo not drawn) | inconclusive [inhibitor, full curve] |
| Cn1cc([N+](=O)[O-])c(C(=O)Nc2ccn(Cc3c(F)c(F)cc(F)c3F)n2)n1 | inactive |
| Cc1ccccc1-n1c(O)c(/C=N/Nc2nc3c(c(=O)n(C)c(=O)n3C)n2C)c(=O)[nH]c1=S | inactive |
| COc1ccc(N2CCN(C(=O)C3CCCN3S(=O)(=O)c3cccc4nsnc34)CC2)cc1 (stereo not drawn) | inactive |
| O=C(CSc1nc2ccccc2n1Cc1c(F)cccc1Cl)N1CCN(c2ccc(F)cc2)CC1 | inconclusive [inhibitor, single point] |

| SMILES | Potency |
| --- | --- |
| COc1ccc(OC)c(NC(=S)NCc2cccs2)c1 | inconclusive [inhibitor, partial curve] |
| CCN(CC)CCN=C(C)c1c(O)n(-c2ccccc2OC)c(=O)[nH]c1=O | inconclusive [inhibitor, partial curve] |
| CCOc1cc(CNC(=O)c2ccc3nc(CCc4ccccc4)oc3c2)ccc1OC | inactive |
| Cn1cccc1Cc1nnc(SCC(=O)Nc2ccccc2F)n1-c1ccc(F)cc1 | inconclusive [inhibitor, partial curve] |
| CC(=O)c1cc(-c2ccccc2)[nH]c1N1CCCC1 | active: 50.1 µM |
| Cn1ncc([N+](=O)[O-])c1C(=O)n1nnc2ccccc21 | inconclusive [inhibitor, partial curve] |
| O=C1NC(=O)N(c2ccc3c(c2)OCO3)C(=O)/C1=C/c1ccc(N2CCCC2)o1 | inconclusive [inhibitor, partial curve] |
| Cc1ccc(SCC(=O)NC(=O)NCc2ccco2)cc1C | inconclusive [inhibitor, partial curve] |
| Cc1cccc(NC(=O)CCC(=O)c2cccs2)n1 | inconclusive [inhibitor, full curve, poor fit] |
| CC1CCC2(CC1)SCC(=O)N2c1ccccc1 (stereo not drawn) | inactive |
| CCNc1ccc2c(Cl)cc(=O)oc2c1 | inactive |
| O=c1c(CN2CCN(c3ccccn3)CC2)coc2ccccc12 | inconclusive [inhibitor, partial curve] |
| COc1cc(CN2CCCC(N3CCN(c4ccccc4C)CC3)C2)ccc1O (stereo not drawn) | inconclusive [inhibitor, partial curve] |
| O=C(NCCC(c1ccccc1)c1ccco1)c1cccs1 (stereo not drawn) | inconclusive [inhibitor, partial curve] |
| c1ccc(-c2ccc3c(c2)NCCN3)cc1 | inconclusive [inhibitor, partial curve] |
| O=C(Nc1ccc(F)cc1F)c1cc2nc(-c3ccco3)cc(C(F)(F)Cl)n2n1 | active: 50.1 µM |
| O=C(/C=C/NCC(=O)c1ccccc1)c1ccc(Br)cc1 | active: 20 µM |
| c1ccc2c(c1)CCCN2Cc1nnc2n1CCCCC2 | inconclusive [inhibitor, partial curve] |
| O=[N+]([O-])c1ccccc1/C=N/NC1=NCCCCC1 | inactive |
| CCC(C)N1C(=O)/C(=C/c2ccc3c(c2)CCN3CCCCl)C(=O)NC1=S (stereo not drawn) | inconclusive [inhibitor, partial curve] |
| Cc1cc(/C=C(\C#N)C(=O)NCc2ccco2)c(C)[nH]1 | inconclusive [inhibitor, partial curve] |
| Cc1nc2ccccc2c(=O)n1Nc1cccc(Cl)c1 | inactive |
| COc1ccc(S(=O)(=O)c2cc(NS(=O)(=O)c3ccc(Cl)cc3)c(C)c(C)c2O)cc1 | inactive |
| O=C(CN1CCCN(S(=O)(=O)c2ccc(Br)s2)CC1)Nc1ccc(Cl)cc1 | inconclusive [inhibitor, partial curve] |
| S=C(Nc1cccc(Cl)c1)Nc1ccc2cn[nH]c2c1 | inconclusive [inhibitor, partial curve] |

| SMILES | Potency |
| --- | --- |
| CC(=O)Oc1cc2oc(=O)cc(C)c2cc1OC(C)=O | inconclusive [inhibitor, single point] |
| O=C(O)CSc1cc(NS(=O)(=O)c2ccc(Cl)cc2)c2ccccc2c1O | active: 7.08 µM |
| CCCCCCCNC(=O)C1(CC2CC(c3ccccc3)=NO2)CCNCC1 (stereo not drawn) | inconclusive [inhibitor, single point] |
| Cc1ccc(SCC(=O)OCC(=O)NCc2ccco2)cc1 | inconclusive [inhibitor, partial curve] |
| O=C(OCn1ncc(Br)c(Br)c1=O)c1ccccc1Cl | active: 1.26 µM |
| Cc1cc(C)cc(NC(=O)c2cccc3c2C(=O)N(C2CCCCC2)C3)c1 | inactive |
| COc1ccc2nc(NC(=O)C3CCN(C(=O)c4ccco4)CC3)sc2c1 | inactive |
| CS(=O)(=O)N(CC(=O)NCc1ccco1)c1ccc(Cl)c(C(F)(F)F)c1 | inconclusive [inhibitor, partial curve] |
| COc1ccc(Cn2c(=O)n(Cc3ccco3)c(=N)c3c4c(sc32)COC(C)(C)C4)cc1 | inactive |
| Cn1c(=O)c2c(SCC(=O)c3ccccc3)nc(C3CC3)nc2n(C)c1=O | inactive |
| O=C(NCCc1ccccc1)c1ccc(CS(=O)Cc2cccc(Cl)c2)o1 (stereo not drawn) | inconclusive [inhibitor, single point] |
| CC1O[C@@H](O[C@H](C)CC[C@@H](C)O)C(O)C[C@H]1O (stereo partly drawn) | inactive |
| O=C(O)c1ccc(N/N=C/C2=Cc3ccccc3OC2)cc1 | inconclusive [inhibitor, full curve, poor fit] |
| CC(C)C(c1nnnn1Cc1ccccc1)N(CCCO)Cc1cc2cc3c(cc2[nH]c1=O)OCO3 (stereo not drawn) | inconclusive [inhibitor, full curve, poor fit] |
| COc1cccc(-c2nc(CS(=O)(=O)CC(=O)Nc3cccc(C)c3C)c(C)o2)c1 | inconclusive [inhibitor, full curve] |
| CCCCCCCCCn1c2c(c(=N)c3c1CCC3)CCC2 | inconclusive [inhibitor, partial curve] |
| CCCCNS(=O)(=O)c1ccc(S(=O)(=O)N2CCC3(CC2)OCCO3)cc1 | inactive |
| C/C(=C\c1cc2ccccc2o1)C1Nc2cccc3cccc(c23)N1 | active: 12.6 µM |
| O=C(Nc1ccccc1C(=O)N1CCOCC1)c1ccco1 | inactive |
| COc1ccc(-c2noc(C3CC(=O)N(c4ccccc4)C3)n2)c(OC)c1 (stereo not drawn) | inconclusive [inhibitor, single point] |
| COc1ccc(C2CC(=O)C(CS(=O)(=O)c3ccccc3)C(=O)C2)cc1 (stereo not drawn) | active: 1 µM |
| Cc1c(C(=O)CN2CCCC(C)(C)C2)c2ccccc2n1C | inconclusive [inhibitor, partial curve] |
| CCNCCNC(=O)c1c(O)c2c([nH]c1=O)CCCC2 | inconclusive [inhibitor, partial curve, poor fit] |
